The structures appear in SMILES notation.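 Values below derive from 48-hour exposures of cells grown in 96-well plates, with endpoints linearly interpolated between the two concentrations bracketing the appropriate inhibition level. Abbreviation: GI50, concentration required for 50% inhibition of growth. TGI denotes the concentration required for complete inhibition of growth.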

For 6 compounds, GI50 and TGI results are on record in PubChem BioAssay (NCI).

This assay has as its system NCI-H322M lung. Nature of the assay: NCI anticancer screen, dose series, 48 h.
Consider `Cc1cc2nc(C(Cl)Cl)nc(-c3cccs3)n2n1`, for which the GI50 is 561 nM and the TGI turned out to be 3090 nM.

Turning to `Cc1ccc(NC(=O)c2ccc(CN3CCN(C)CC3)c(C(F)(F)F)c2)cc1Oc1ccc(-c2[nH]nc3ncnc(N)c23)cc1`, the GI50 is 2430 nM and the TGI is 6110 nM.

As for `N#Cc1cnc2ccc(-c3cnc4[nH]ncc4c3)cc2c1N1CCc2cc(F)c(Cl)cc21`, the GI50 was 382 nM and the TGI is > 100000 nM.

For `COc1cc(/C=C/C(=O)c2cc(OC)c(OC)c(OC)c2)ccc1Oc1nc(NCCO)nc(N2CCOCC2)n1`, the GI50 is 2910 nM and the TGI came out at 8630 nM.

Turning to `Oc1ccc(CSc2nnc(-c3ccncc3)n2-c2ccccc2)c2cccnc12`, the GI50 was 1940 nM and the TGI is > 100000 nM.

Consider `O=C(Nc1ccc(F)cc1)c1cc(-c2ccc(F)cc2F)ccc1O`, for which the GI50 was 2850 nM and the TGI came out at 15100 nM.
